Measured values taken from patent US20240024383A1, “ENGINEERED PROBIOTIC COMPOSITIONS AND USES THEREOF” (priority 2020, published 2024).

Experiment: Nitrocefin hydrolysis assay for β-lactamase activity in culture supernatants
Type: biochemical
Conditions: 0.1 mM nitrocefin, absorbance at 486 nm
Excerpt: A L. lactis strain was generated that is able to inactivate β-lactam antibiotics in its surroundings by secreting a split enzyme that is encoded in a two-gene biosynthesis pathway. By splitting β-lactam degradation into a genetically unlinked trait the selective advantage conferred upon a single locus was removed, thereby limiting the possible spread of the engineered trait in the population through a single HGT event. To achieve this, a heterodimeric version of the TEM1 β-lactamase (spTEM1) that regains its activity when reconstituted in the extracellular environment was generated.
β-lactamase assay. Nitrocefin (BioVision) was dissolved in DMSO to make a 1 mM stock. It was added to samples bacterial culture supernatant in a clear-bottom 96-well plate to a final concentration of 0.1 mM. The plate was placed in a spectrophotometer SpectraMaX™ M5 (Molecular Devices) to read absorbance at 486 nm over time.

B1: SC-BLF-2: SpyCatcher fused to TEM1 β-lactamase fragment BLF2 with usp45 secretion signal (SEQ ID NO: 8) (protein)
chain: MKKKIISAILMSTVILSAAAPLSGVYAGAMVDTLSGLSSEQGQSGDMTIEEDS[about 80 residues not shown]GKATKGDAHIGGGGSGGGGSLLTLASRQQLIDWMEADKVAGPLLRSALPAGWFIADKSGAGERGSRGIIAALGPDGKPSRIVVIYTTGSQATMDERNRQIAEIGASLIKHW
For B1, the “β-lactamase activity (nitrocefin hydrolysis)” value was “do not display β-lactamase activity”.
